From a collection of fitness landscapes (doi:10.1016/j.celrep.2020.107928)
The full ranking holds about 81,000 sequences; the median of “one-hybrid fitness for binding NBS DNA” is about -0.1, and the highest 2% start at about 0.36. Some of the results follow.

B1: Caulobacter ParB omega fusion; a variant is named by its letters at X, in order, B8GW30 (parent)
chain: MESVVVGEPGMSEGRRGLGRGLSALLGEVDAAPAQAPGEQLGGSREAPIEILQRNPDQPRRTFREEDLEDLSNSIREKGVLQPILVRPSPDTAGEYQIVAGERAWRAAQRAGLKTVPIMVRELDDLAVLEIGIIENVQRADLNVLEEALSYKVLMEKFERTQENIAQTIGKSXSHVANXMRLLXLPDEVQSYLVSGELTAXHARAIAAAADPVALAKQIIEGGLSVRETEALARKAPNLSAGKSKGGRPPRVKDTDTQALESDLSSVLGLDVSIDHRGSTGTLTITYATLEQLDDLCNRLTRGI

Variants of: B1
Test: one-hybrid fitness for binding NBS DNA (the Noc-binding site; scaled: cognate 1, non-cognate 0); higher = stronger binding
Conditions: with NBS DNA site
In short: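 On M9-minus-histidine containing 0.1 mM IPTG and 5 mM 3-AT, E. coli USO cells with a HIS3 reporter, site 19 bp from the promoter, grew 48 hours at 37°C to select Caulobacter ParB libraries randomised at four specificity codons. Plasmids from before and after were Illumina-sequenced, with three replicate libraries pooled and variants under 10 reads left out. Fitness is the log change in variant-to-wild-type read ratio, rescaled against cognate and non-cognate.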

Row | Variant | one-hybrid fitness for binding NBS DNA
1 | KWFS | ≤ 0.2
2 | AAQM | ≤ 0.2
3 | MTGD | ≤ 0.2
4 | QYEA | ≤ 0.2
5 | ALSE | ≤ 0.2
6 | VVID | ≤ 0.2
7 | NGTK | ≤ 0.2
8 | PQLN | ≤ 0.2
9 | TLLF | ≤ 0.2
10 | EKSI | ≤ 0.2
11 | RFKW | ≤ 0.2
12 | CKDV | ≤ 0.2
13 | DFRK | ≤ 0.2
14 | TWLL | ≤ 0.2
15 | SLSF | ≤ 0.2
16 | RVRG | ≤ 0.2
17 | TNYR | ≤ 0.2
18 | AYRQ | ≤ 0.2
19 | YCSH | ≤ 0.2
20 | SWEM | ≤ 0.2
21 | PPHF | ≤ 0.2
22 | YHGS | ≤ 0.2
23 | KCKL | ≤ 0.2
24 | NTAQ | ≤ 0.2
25 | SFIS | ≤ 0.2
26 | VPQE | ≤ 0.2

Row | Variant | one-hybrid fitness for binding NBS DNA
27 | VNYR | ≤ 0.2
28 | YEQD | ≤ 0.2
29 | IYSR | ≤ 0.2
30 | SPRN | ≤ 0.2
31 | QPCF | ≤ 0.2
32 | GYGG | ≤ 0.2
33 | FCLR | ≤ 0.2
34 | PFHA | ≤ 0.2
35 | GEPN | ≤ 0.2
36 | QAQN | ≤ 0.2
37 | RMSG | ≤ 0.2
38 | WDVM | ≤ 0.2
39 | SHNM | ≤ 0.2
40 | GHDR | ≤ 0.2
41 | NNFI | ≤ 0.2
42 | RKDM | ≤ 0.2
43 | AKWF | ≤ 0.2
44 | WHYS | ≤ 0.2
45 | VFSA | ≤ 0.2
46 | IHGC | ≤ 0.2
47 | HTFR | ≤ 0.2
48 | CVNF | ≤ 0.2
49 | NFYC | ≤ 0.2
50 | WHMS | ≤ 0.2
51 | PTIM | ≤ 0.2
52 | VWPG | ≤ 0.2

Row | Variant | one-hybrid fitness for binding NBS DNA
53 | EHDE | ≤ 0.2
54 | KMVV | ≤ 0.2
55 | CLRI | ≤ 0.2
56 | CLYA | ≤ 0.2
57 | ATEL | ≤ 0.2
58 | YSVS | ≤ 0.2
59 | PAKF | ≤ 0.2
60 | QIGG | ≤ 0.2
61 | HRKT | 0.332
62 | LGSS | ≤ 0.2
63 | PCAI | ≤ 0.2
64 | PPVP | ≤ 0.2
65 | RELV | ≤ 0.2
66 | QVIW | ≤ 0.2
67 | TLHC | ≤ 0.2
68 | RKET | 0.528
69 | NSNP | ≤ 0.2
70 | RTFK | ≤ 0.2
71 | ISQG | ≤ 0.2
72 | TSFR | ≤ 0.2
73 | EDPR | ≤ 0.2
74 | HQTA | ≤ 0.2
75 | FHTM | ≤ 0.2
76 | WSAC | ≤ 0.2
77 | STTT | ≤ 0.2
78 | MFKY | ≤ 0.2

Row | Variant | one-hybrid fitness for binding NBS DNA
79 | GAVG | ≤ 0.2
80 | PLPW | ≤ 0.2
81 | TESG | ≤ 0.2
82 | HWAI | ≤ 0.2
83 | AKAC | ≤ 0.2
84 | TPQG | ≤ 0.2
85 | KPVF | ≤ 0.2
86 | PHFH | ≤ 0.2
87 | GITY | ≤ 0.2
88 | VHPY | ≤ 0.2
89 | QCSG | ≤ 0.2
90 | IMLI | ≤ 0.2
91 | SYKC | ≤ 0.2
92 | IPDS | ≤ 0.2
93 | WTRA | ≤ 0.2
94 | APAG | ≤ 0.2
95 | YTQY | ≤ 0.2
96 | AKRC | ≤ 0.2
97 | TIGR | ≤ 0.2
98 | NFSY | ≤ 0.2
99 | IMAY | ≤ 0.2
100 | TGPE | ≤ 0.2
101 | FYMS | ≤ 0.2
102 | QGPW | ≤ 0.2
103 | TLRA | ≤ 0.2
104 | QMWV | ≤ 0.2

Row | Variant | one-hybrid fitness for binding NBS DNA
105 | TCLP | ≤ 0.2
106 | EMQG | ≤ 0.2
107 | DNRH | ≤ 0.2
108 | RGLC | ≤ 0.2
109 | MTCS | ≤ 0.2
110 | AGRF | ≤ 0.2
111 | LAYQ | ≤ 0.2
112 | SPVK | ≤ 0.2
113 | RSTP | ≤ 0.2
114 | QTVM | ≤ 0.2
115 | YCIR | ≤ 0.2
116 | NAES | ≤ 0.2
117 | QDRT | ≤ 0.2
118 | AMAY | ≤ 0.2
119 | AKAE | ≤ 0.2
120 | ACAN | ≤ 0.2
121 | INVL | ≤ 0.2
122 | PRFS | ≤ 0.2
123 | KLYH | ≤ 0.2
124 | DESA | ≤ 0.2
125 | KKAT | 0.309
126 | KDMR | ≤ 0.2
127 | PVHF | ≤ 0.2
128 | TNEM | ≤ 0.2
129 | AQRC | ≤ 0.2
130 | CCDC | ≤ 0.2

Row | Variant | one-hybrid fitness for binding NBS DNA
131 | ICLM | ≤ 0.2
132 | MCCT | ≤ 0.2
133 | GTQL | ≤ 0.2
134 | YTPK | ≤ 0.2
135 | RDLK | ≤ 0.2
136 | IRHG | ≤ 0.2
137 | GRCE | ≤ 0.2
138 | LRRQ | ≤ 0.2
139 | LWCR | ≤ 0.2
140 | MSYS | ≤ 0.2
141 | STVF | ≤ 0.2
142 | AWRP | ≤ 0.2
143 | QDWT | ≤ 0.2
144 | LKQS | ≤ 0.2
145 | DRGS | ≤ 0.2
146 | DLNG | ≤ 0.2
147 | RYFL | ≤ 0.2
148 | VCMG | ≤ 0.2
149 | SQVS | ≤ 0.2
150 | SRRG | ≤ 0.2
151 | IMTR | ≤ 0.2
152 | RCQT | 0.513
153 | FFTG | ≤ 0.2
